Source: paper PMC4336329 (PLoS ONE, 2015)
Hit rate of the full screen: of about 310,000 compounds, about 14,000 (4.5%) showed an effect of 50% or more. Effects have a minus sign here. The list shows a part of the results.

Biological target: human ether-à-go-go-related gene (hERG) potassium channel (human, UniProt Q12809)
Assay: primary screen, population patch clamp on CHO cells stably expressing hERG
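Note: peak tail current of the secondary pulse compared with the same well before compound.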

human ether-à-go-go-related gene (hERG) potassium channel, sequence (Q12809 whole entry, looked up): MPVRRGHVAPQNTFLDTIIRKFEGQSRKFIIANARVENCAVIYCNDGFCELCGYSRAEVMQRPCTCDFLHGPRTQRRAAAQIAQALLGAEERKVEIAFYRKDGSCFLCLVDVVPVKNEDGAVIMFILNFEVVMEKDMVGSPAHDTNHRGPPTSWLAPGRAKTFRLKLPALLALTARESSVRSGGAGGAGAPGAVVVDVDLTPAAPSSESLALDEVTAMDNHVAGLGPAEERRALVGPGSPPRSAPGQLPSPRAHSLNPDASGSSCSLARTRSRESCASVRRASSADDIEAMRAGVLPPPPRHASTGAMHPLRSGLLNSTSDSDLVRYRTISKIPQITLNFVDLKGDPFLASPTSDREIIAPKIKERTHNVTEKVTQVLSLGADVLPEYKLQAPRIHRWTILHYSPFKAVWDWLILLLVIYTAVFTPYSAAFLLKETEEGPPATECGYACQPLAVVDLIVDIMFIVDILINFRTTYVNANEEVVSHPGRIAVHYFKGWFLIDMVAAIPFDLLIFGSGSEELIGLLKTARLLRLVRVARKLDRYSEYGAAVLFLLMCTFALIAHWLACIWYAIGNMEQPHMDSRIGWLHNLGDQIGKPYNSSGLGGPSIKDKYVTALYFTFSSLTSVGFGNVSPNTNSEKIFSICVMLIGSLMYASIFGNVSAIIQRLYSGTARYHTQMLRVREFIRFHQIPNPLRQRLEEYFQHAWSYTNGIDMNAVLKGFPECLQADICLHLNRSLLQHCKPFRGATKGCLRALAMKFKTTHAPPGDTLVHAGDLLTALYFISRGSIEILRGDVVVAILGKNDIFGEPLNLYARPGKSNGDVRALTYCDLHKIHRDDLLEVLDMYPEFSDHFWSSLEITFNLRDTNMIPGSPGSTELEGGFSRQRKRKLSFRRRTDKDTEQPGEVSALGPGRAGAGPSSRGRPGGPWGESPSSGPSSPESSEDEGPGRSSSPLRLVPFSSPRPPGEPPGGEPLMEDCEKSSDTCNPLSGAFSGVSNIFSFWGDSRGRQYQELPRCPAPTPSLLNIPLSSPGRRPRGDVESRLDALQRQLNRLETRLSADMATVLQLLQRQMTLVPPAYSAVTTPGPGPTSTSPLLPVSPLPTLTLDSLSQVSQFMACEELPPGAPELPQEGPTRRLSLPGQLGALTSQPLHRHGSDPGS

Structure (SMILES) | hERG current change (%, negative = inhibition) at 10uM [%]
O=C(Nc1ccc(Br)cc1)c1cccnc1N1CCCCC1 | -18.9
O=S(=O)(c1ccc(Cl)cc1)N1CCCC(c2nc(-c3ccc(F)cc3)no2)C1 (centres unmarked) | -3.92
O=C(Cn1cc([N+](=O)[O-])cn1)NCCc1nc2ccccc2[nH]1 | 30.8
Cc1ccc(C(=O)COC(=O)c2ccccc2N2C(=O)C3C4CCC(C4)C3C2=O)cc1C (centres unmarked) | -19.2
O=C1OCC/C1=C\c1ccc(O)cc1 | 12.3
O=C(c1ccco1)N1CCCN(Cc2nc(Cc3ccccc3)no2)CC1 | -25.8
C=C(C)CNC(=S)N/N=C\c1ccc2c(c1)OCO2 | -38.5
CC1=C(C(=O)Nc2cccc(C(=O)NCc3ccc(F)cc3)c2)SCCO1 | -7.54
COc1ccc(-c2ccc(SCC(=O)NCc3ccco3)nn2)cc1OC | -9.59
O=C1/C(=C/C=C/c2ccccc2)Oc2c1ccc(O)c2CN1CCN(CCO)CC1 | 4.78
O=C(O)c1ccc(-n2c(O)c(/C=C3\C=Nc4ccccc43)c(=O)[nH]c2=O)cc1 | 12
COc1ccc(OCCCC(=O)Nc2nncs2)cc1 | 0.955
COc1ccc(Cn2c(=O)[nH]c3cc(C(=O)N4CCN(c5ccccc5F)CC4)ccc3c2=O)cc1 | 11
CC(=O)Nc1ccccc1OC(C)C(=O)N1CC(C)CC(C)C1 (centres unmarked) | 26.9
CCC(CC)C(=O)Nc1cccc(-c2ccc3nncn3n2)c1 | 4.92
CCOc1cccc(OCCCNCCCOC)c1 | -2.04
Cn1nc(C(=O)Nc2ccc3c(c2)OCCO3)c2ccccc2c1=O | -12.8
Cc1ccc(Oc2cc(NN3CCCCC3)c([N+](=O)[O-])cc2[N+](=O)[O-])c([N+](=O)[O-])c1 | -10.3
CCN(CC(=O)NCc1ccc(Cl)cc1)C(=O)CCc1ccccc1O | -54.1

Structure (SMILES) | hERG current change (%, negative = inhibition) at 10uM [%]
CCSC1=N/C(=C\c2ccccc2)C(=O)N1 | -4.35
Cc1csc(NC(=O)c2ccc(=O)[nH]c2)n1 | 11.1
O=C(Nc1cccnc1)C(Cc1ccccc1)n1cccc1 (centres unmarked) | 10.6
O=C1Nc2ccccc2/C1=N\N=C\C1=C(N2CCOCC2)C(=C\c2ccccc2)/CC1 | 3.25
COc1ccccc1/C=C/C=NC1C(=O)N(c2ccccc2)[N+](C)=C1C (centres unmarked) | 1.61
Cc1ccc(CNC(=O)N2CCN(c3ccc(C)cc3)CC2)cc1 | 16.9
CCOc1cccc2sc(N(CCCN(C)C)C(=O)c3ccc(S(=O)(=O)N(C)c4ccccc4)cc3)nc12.Cl | -83.7
CN(Cc1ccn[nH]1)C(=O)C1CCC(=O)N(Cc2cccc(C(F)(F)F)c2)C1 (centres unmarked) | 8.61
Cc1ccc(C)c(C(=O)CN2C(=O)NC3(CCC(C)CC3)C2=O)c1 (centres unmarked) | -18.3
CCc1ccc(NC(=O)N2CCCCCC2)cc1 | 6.55
Cc1ccc(NC(=S)N/N=C/c2c(Cl)cccc2Cl)c(C)c1 | 10.2
C[C@H](CCC(=O)NCCS(=O)(=O)[O-])[C@H]1CC[C@H]2[C@@H]3[C@H](O)C[C@@H]4C[C@H](O)CC[C@]4(C)[C@H]3C[C@H](O)[C@]12C.O.[Na+] | 17.9
Cc1cc(C(=O)OCC(=O)N2CC(C)OC(C)C2)ccc1[N+](=O)[O-] (centres unmarked) | -0.163
COc1cccc(NC(=O)Cc2nnc(SCC(=O)NC3CCCC3)n2C)c1 | 15.7
CC(NCc1ccc(S(N)(=O)=O)cc1)C(=O)NCc1ccccc1 (centres unmarked) | 16.5
CCOc1ccc(NS(=O)(=O)c2ccc(C(=O)N3CCCCC3)cc2)cc1 | -9.46
CNC(=O)C(C)N1c2cccc3cccc(c23)S1(=O)=O (centres unmarked) | 22.3
O=C(c1ccccc1)c1ccc2nc(-c3ccc(NC(=O)c4ccccc4Br)cc3)[nH]c2c1 | 17.8
CCCCNC(=O)Nc1cc(C(=O)OC)ccc1Cl | 3.57

Structure (SMILES) | hERG current change (%, negative = inhibition) at 10uM [%]
COc1ccccc1C(=O)Nc1nc(C)cc(C)n1 | 20.5
CCCC(=O)N1CCN(Cc2ccc3c(c2)OCO3)CC1 | -3.83
CC(C)(C)c1cc(CCC(=O)N2CCNCC2)c(C(C)(C)C)cc1O | 5.52
O=C(N/N=C/c1ccco1)c1ccccc1OCc1ccc(Br)cc1 | -8.69
COc1ccc(S(=O)(=O)NCC2CCCN(Cc3cccnc3)C2)cc1 (centres unmarked) | -47.7
O=C(CSc1ncn[nH]1)NCc1ccc2c(c1)OCO2 | 7.7
Cc1ccc(Cc2nnc(SCC(=O)Nc3ccccc3Cl)[nH]c2=O)cc1 | -14.7
CC(=O)Nc1ccc(N/C(=N\S(=O)(=O)c2ccccc2)c2ccccc2)cc1 | 6.81
COc1ccc(OC)c(NC(=O)CNC(=O)c2cccs2)c1 | 4.75
CCCCN(C(=O)CC1CCCC1)c1c(N)n(CC(C)C)c(=O)[nH]c1=O | -30.2
O=C(O)c1cc(-c2ccc(Br)s2)nc2ccccc12 | 29.2
CCN(CC)c1ccc(NC(=O)CCc2nnc3ccc(N4CCCCC4)nn23)c(C)c1 | -12.8
COc1ccccc1N1CCN(CC(C)N(C(=O)C2CCCCC2)c2ccccn2)CC1 (centres unmarked) | -67.9
Cc1cc(NC(=O)C2CC(=O)N(c3ccc(F)cc3)C2)no1 (centres unmarked) | -6.47
O=C(CCc1nnc(C2CCCCC2)o1)NCc1cccc(-n2cccn2)c1 | 1.8
CN(C)S(=O)(=O)c1cccc(NC(=S)NCc2ccco2)c1 | 19.4
COC(=O)C1CSC(C(=O)OC)N1C(=O)Nc1c(C)cccc1C (centres unmarked) | 3.69
COc1cccc(OC)c1C(=O)OCC(=O)NCc1ccco1 | 4.7
